Assay results: the supplement of paper PMC10126150
Sequences with one replicate were seen in a single cluster, so their values are uncertain.

System: ATP
Test: switch fluorescence ratio, 500 uM ATP over buffer (Cy3 cluster intensity, sum of 5 cycles each) (fold (ratio)); higher = stronger signal-on switching upon ATP binding; sequences stand for … in TCGTCGGCAGCGTCAGATGTGTATAAGAGACAGTTTTTTTTTTTTTTTTTTTTTTTTT…TC
Conditions: aptamer strand: ATP DNA aptamer (quencher-CACCTGGGGGAGTATTGCGGAGGAAGG + anchor), 100 nM annealed; ATP concentration: 500 uM; one replicate
How it was run: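 Switching-strand clusters labelled with Cy3 on a modified Illumina MiSeq flow-cell were annealed to 100 nM quencher-labelled ATP aptamer, imaged in selection buffer, and re-imaged after 15 min with 500 uM ATP at 22 °C. This was done over five cycles with NaOH stripping and re-annealing in between. The fluorescence ratio is summed target-cycle over summed buffer-cycle Cy3 intensity per cluster, averaged per switch-domain sequence, excluding clusters outside 100-1000 RFU.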
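Further: ATP exposure 15 min at 22 °C before imaging.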

Row | Sequence | switch fluorescence ratio
1 | TTGGTGACGA | 1.01
2 | TTGGTGACTT | 0.95
3 | TTGGTGCCTA | 0.957
4 | TTGGTGGCCG | 1.04
5 | TTGGTGGGAC | 0.963
6 | TTGGTGTCGA | 1.01
7 | TTGGTTGTGC | 1.02
8 | TTGTAAAATC | 0.994
9 | TTGTAAGAAG | 1.01
10 | TTGTAAGTCA | 1.01
11 | TTGTAATAAC | 1.07
12 | TTGTATTCG | 1.05
13 | TTGTCAGGGC | 0.974
14 | TTGTCATTTC | 1.03
15 | TTGTCCGGCC | 1.06
16 | TTGTCGGGAG | 1.05
17 | TTGTCGTTTG | 0.976
18 | TTGTCTAGC | 1.03
19 | TTGTCTCAAT | 0.996
20 | TTGTCTCTAA | 0.973
21 | TTGTCTCTGT | 0.947
22 | TTGTCTTCA | 0.98
23 | TTGTCTTGCG | 1.01
24 | TTGTGAACAT | 1.02
25 | TTGTGATGCC | 1.02
26 | TTGTGCACAC | 1.01

Row | Sequence | switch fluorescence ratio
27 | TTGTGCACGT | 0.99
28 | TTGTGCAGTA | 0.982
29 | TTGTGCCGGA | 1.08
30 | TTGTGCGACA | 1
31 | TTGTGGAACA | 0.995
32 | TTGTGGCTTC | 1.01
33 | TTGTGGGCTT | 1.39
34 | TTGTGTATAC | 1.02
35 | TTGTGTGGA | 1.04
36 | TTGTGTTA | 0.973
37 | TTGTGTTAC | 1.07
38 | TTGTGTTTC | 1.05
39 | TTGTTAACGA | 0.966
40 | TTGTTAGCA | 1.16
41 | TTGTTATCTG | 1.02
42 | TTGTTCGAGA | 0.968
43 | TTGTTCTTTA | 1.02
44 | TTGTTGCG | 0.896
45 | TTGTTGCTGC | 1.07
46 | TTGTTGTCAG | 0.962
47 | TTGTTGTGCC | 1.02
48 | TTGTTTAGTA | 1.04
49 | TTGTTTCTAG | 0.993
50 | TTGTTTGCTG | 0.995
51 | TTTAAATTGC | 1.01
52 | TTTAACCA | 1.07

Row | Sequence | switch fluorescence ratio
53 | TTTAACCCGC | 1.08
54 | TTTAACCGA | 1.1
55 | TTTAACTACC | 1.2
56 | TTTAAGAAGA | 1.02
57 | TTTAAGTCG | 1.02
58 | TTTAATAACT | 1.01
59 | TTTAATCTCT | 1
60 | TTTAATTCGG | 0.993
61 | TTTACAGGTG | 3.44
62 | TTTACAGTGT | 1
63 | TTTACATCT | 0.971
64 | TTTACCCCCC | 1.3
65 | TTTACCGTG | 1.05
66 | TTTACCTACG | 1.44
67 | TTTACGAGTC | 1
68 | TTTACGGCGC | 1.06
69 | TTTACTGTGA | 0.99
70 | TTTAGAATTC | 0.99
71 | TTTAGATAGC | 1.02
72 | TTTAGATTC | 0.983
73 | TTTAGCCAAC | 1.08
74 | TTTAGTGGT | 0.996
75 | TTTAGTGTGT | 0.953
76 | TTTATAAACA | 0.981
77 | TTTATACGG | 0.99
78 | TTTATAGATT | 1.04

Row | Sequence | switch fluorescence ratio
79 | TTTATCGCTT | 1.12
80 | TTTATCTATG | 0.992
81 | TTTATGAACG | 0.974
82 | TTTATGCAGT | 1
83 | TTTATGCCTA | 1.07
84 | TTTATTCGAT | 1
85 | TTTATTGAGA | 1.02
86 | TTTATTGGA | 1.02
87 | TTTATTTAGT | 1.01
88 | TTTCAACAGT | 0.993
89 | TTTCAACGGC | 1.02
90 | TTTCAAGACT | 1.1
91 | TTTCAAGTTA | 1.04
92 | TTTCAATTAG | 1.02
93 | TTTCACATCG | 1.04
94 | TTTCACCTGC | 1.03
95 | TTTCACGACG | 1.23
96 | TTTCAGCATT | 1.05
97 | TTTCAGTTAG | 1.02
98 | TTTCAGTTTA | 0.99
99 | TTTCATAAGC | 1.04
100 | TTTCATCACT | 0.987
101 | TTTCCAGTCG | 0.984
